Among all 310,000 compounds or so, about 14,000 (4.5%) showed an effect of 50% or more. The effect is printed as a negative number. The list shows a part of the results.
These compounds were tested against human ether-à-go-go-related gene (hERG) potassium channel (human, UniProt Q12809) (assay: primary screen, population patch clamp on CHO cells stably expressing hERG).
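Note: peak tail current of the secondary pulse compared with the same well before compound.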

Chain of human ether-à-go-go-related gene (hERG) potassium channel (Q12809 whole entry, looked up): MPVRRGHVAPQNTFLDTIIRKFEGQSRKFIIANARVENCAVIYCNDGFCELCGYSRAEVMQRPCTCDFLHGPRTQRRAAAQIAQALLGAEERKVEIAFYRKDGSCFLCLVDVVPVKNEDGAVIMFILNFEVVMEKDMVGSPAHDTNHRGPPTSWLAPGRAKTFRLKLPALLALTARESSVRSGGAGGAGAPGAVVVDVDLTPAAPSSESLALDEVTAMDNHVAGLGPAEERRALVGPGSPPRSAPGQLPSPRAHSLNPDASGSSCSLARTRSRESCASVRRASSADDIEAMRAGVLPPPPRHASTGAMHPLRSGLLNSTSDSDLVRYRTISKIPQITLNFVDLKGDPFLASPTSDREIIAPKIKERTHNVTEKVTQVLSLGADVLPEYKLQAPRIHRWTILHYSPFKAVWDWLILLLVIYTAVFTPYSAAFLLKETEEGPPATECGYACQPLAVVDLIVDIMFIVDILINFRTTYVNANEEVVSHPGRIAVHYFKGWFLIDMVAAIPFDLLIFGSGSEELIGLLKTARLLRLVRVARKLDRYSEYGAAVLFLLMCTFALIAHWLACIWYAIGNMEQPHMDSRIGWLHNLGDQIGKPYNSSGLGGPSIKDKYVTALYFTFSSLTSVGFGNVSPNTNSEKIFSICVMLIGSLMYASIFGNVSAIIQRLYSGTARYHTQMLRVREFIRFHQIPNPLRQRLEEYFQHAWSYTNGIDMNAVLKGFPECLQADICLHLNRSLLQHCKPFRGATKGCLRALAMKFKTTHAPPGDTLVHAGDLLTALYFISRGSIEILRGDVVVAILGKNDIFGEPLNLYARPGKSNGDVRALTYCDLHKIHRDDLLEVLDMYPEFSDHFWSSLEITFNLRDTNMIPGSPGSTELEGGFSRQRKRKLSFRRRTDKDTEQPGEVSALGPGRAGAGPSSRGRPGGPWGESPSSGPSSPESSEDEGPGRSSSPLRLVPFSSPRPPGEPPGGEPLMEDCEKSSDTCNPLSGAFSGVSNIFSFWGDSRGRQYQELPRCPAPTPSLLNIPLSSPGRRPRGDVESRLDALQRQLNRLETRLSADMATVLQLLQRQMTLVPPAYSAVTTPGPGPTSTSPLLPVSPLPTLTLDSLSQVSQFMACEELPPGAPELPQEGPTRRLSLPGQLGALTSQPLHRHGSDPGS

Point of comparison: `COc1ccc(NC(=O)c2c(Cl)cnn2C)c(C)c1`, “hERG current change (%, negative = inhibition) at 10uM” value -4.52%. Against it:
- CCOC(=O)C1=C(C)N(CCC(=O)O)C(=O)NC1c1ccccc1Cl (stereo not shown) — higher, -4.03%
- N#CN=C(c1ccccc1)c1ccccc1 — higher, 20.5%
- CCn1c(-c2csc(-c3ccc(Cl)cc3)n2)n[nH]c1=S — higher, 11.3%
- Cc1ccc(-c2ccc(=O)n(Cc3cc(C)ccc3C)n2)cc1 — higher, 16%
- N#Cc1ccc(-c2cccs2)nc1SCc1cccnc1 — higher, 17.5%
- Cc1ccc(N2C(N)=C(C#N)C3(C(=O)N(C)c4ccccc43)C3=C2CC(C)(C)CC3=O)cc1Cl (stereo not shown) — lower, -8.85%
- CCCCOc1ccc(C(=O)NCC(=O)NNC(=O)C2COc3ccccc3O2)cc1 (stereo not shown) — lower, -18.2%
- Cc1ccc(/C(N)=N/OC(=O)/C=C/c2ccccc2)cc1 — higher, 1.03%
- COc1cccc(/C=N/n2c(COc3ccccc3)n[nH]c2=S)c1OC — higher, 6.88%
- COCCOC(=O)C1=C(N)Oc2c(oc(CO)cc2=O)C1c1ccccc1F (stereo not shown) — higher, -4.2%
- COc1ccc(N2CCN(C(=O)c3cc4c(=O)n(Cc5ccccc5)ccc4nc3C)CC2)cc1 — lower, -55.2%
- O=C1NC2C(NC(=O)N2C2CCCCC2)N1C1CCCCC1 (stereo not shown) — higher, 7.47%
- COc1ccc(OC)c(-c2c3c([nH]c(=S)c2C#N)CCCC3)c1 — higher, 10.8%
- Cc1cccc(N2CCN(S(=O)(=O)c3c(C(=O)N4CCCCC4)c(C)n(C)c3C)CC2)c1C — lower, -9.26%
- CC(=O)NC(CCS(C)(=O)=O)C(=O)Nc1ccccc1 (stereo not shown) — higher, 23%
- COC(=O)Cc1c(C)nc2nc(NCc3c(F)cccc3Cl)[nH]n2c1=O — lower, -11.3%
- CCO.O=c1[nH]c(NNC(=S)NCc2ccccc2)nc2c1C1(CCCCC1)Cc1ccccc1-2 — higher, 21.9%
- CN(C)c1ccc(-c2nn3c(-c4cccnc4)nnc3s2)cc1 — higher, 10.6%
- CCCC(C)C(=O)OCC(=O)NCc1ccc(OC)c(OC)c1 (stereo not shown) — higher, 3.95%
- COc1ccc(CCNC(=O)c2noc3c2CCCC3)cc1OC — higher, 3.46%
- CCOc1ccc(C2C=C(c3ccc(C)cc3)Nc3ncnn32)cc1 (stereo not shown) — higher, 1.34%
- COc1ccc(O)c(C(=O)c2cnc3onc(C(C)C)c3c2)c1 — higher, 11.1%
- O=S(=O)(NC1CCCC1)c1ccc(S(=O)(=O)N2CCCN(Cc3ccccc3)C2)cc1 — lower, -26.8%
- CCc1nc(SCc2ccccc2)n[nH]1 — higher, 23.1%
- CCOC(=O)Cc1c(C)c2ccc(N(CC)CC)cc2oc1=O — higher, 11.1%
- Cc1nn(CC(=O)Nc2nccs2)c(C)c1[N+](=O)[O-] — higher, -3.78%
- CC1(C)CC(=O)C2=C(C1)N(CCN1CCOCC1)C1=C(C(=O)CC(C)(C)C1)C2c1ccc(Cl)c([N+](=O)[O-])c1 — lower, -30.3%
- CC1CCc2nc3ccccc3c(C(=O)OCC(=O)NC3CCS(=O)(=O)C3)c2C1 (stereo not shown) — higher, 0.522%
- CCOc1ccc(NC(=O)CN(C)S(=O)(=O)c2ccc(-c3ccc(=O)[nH]n3)s2)cc1 — higher, 2.54%
- CCCn1nnc(NC(=O)c2ccccc2Br)n1 — higher, 12.8%
- COC(=O)c1[nH]c2ccc(Cl)cc2c1NC(=O)CN1CCC(C(N)=O)CC1 — higher, -2.26%
- CCN(C(=O)COC(=O)c1cc(C)n(C2CC2)c1C)c1ccccc1 — higher, 0.464%
- COc1ccc(N(C(=O)/C=C/c2ccc(OC)c(OC)c2)C2=CC3CCC(C2)N3C)cc1.Cl (stereo not shown) — lower, -69.6%
- CCOC(=O)C1CCN(C(=O)c2cccnc2)CC1 — higher, 7.65%
- Br.CCc1ccc(C(=O)Cn2ccsc2=N)cc1 — higher, 16.4%
- CC(=O)C1=C(C)OC(N)=C(C#N)C1c1ccco1 (stereo not shown) — higher, 3.96%
- COc1ccc(OCCCC(=O)Nc2nc(C)c(C(C)=O)s2)cc1 — higher, 24.5%
- COC(=O)c1ccc(CSc2nnc(Nc3ccc(C)cc3)s2)o1 — higher, 13%
- Cc1cccc(C)c1NC(=O)CNC(=O)CCC(=O)c1cccs1 — higher, 0.383%
- CS(=O)(=O)/C(C#N)=C\c1cnc(S(=O)(=O)c2ccccc2)s1 — higher, 25.7%
- CN(C)Cc1c(C(=O)N/N=C/c2cccs2)nnn1-c1nonc1N — lower, -26.9%
- C=CCOC(=O)C1=C(C)OC(N)=C(C#N)C1c1c(C)nn(-c2ccccc2)c1Cl (stereo not shown) — lower, -19.5%
- CC1=C(C(=O)Nc2ccccc2C(=O)NCc2ccccc2)SCCO1 — higher, 9.8%
- Cc1cc(OCC(=O)c2ccc(F)cc2)ccc1N1C(=O)CCC1=O — higher, 5.87%
- COc1cc2[nH]c(C(=O)Nc3ccc(F)cc3)cc2c(OC)c1OC — higher, 10.5%
- Cc1ccccc1NC(=O)Cn1nnc(C(=O)NCc2ccco2)c1N — lower, -8.17%
- Cc1cnc(C(=O)NC2CC(C)(C)Cc3c2cnn3-c2ccccc2)cn1 (stereo not shown) — lower, -39%
- Cc1cc(S(=O)(=O)Nc2cccnc2)c(C)s1 — lower, -5.93%
- CC(C)(CO)Nc1nc(Nc2ccccc2)nc(Nc2ccccc2)n1 — higher, 7.53%
- Cc1ccccc1-c1nc(CS(=O)CC(=O)NC2CCCCC2)c(C)o1 (stereo not shown) — higher, -3.19%
- CCCCc1c(C)nc2nc(SCc3ccc(Cl)cc3)[nH]n2c1=O — lower, -12.8%
- CCc1cccc(CC)c1NC(=O)COn1nnc2ccc(C(F)(F)F)cc21 — higher, 12.5%
- Cc1nc2cc(C(=O)OCC(=O)N(CC(C)C)C3CCS(=O)(=O)C3)ccc2n1-c1ccccc1 (stereo not shown) — higher, -1.56%
- Cc1ccc(S(=O)(=O)c2nnn3c2nc(N2CCCCC2)c2ccccc23)cc1 — higher, 0.461%
- O=C(NNS(=O)(=O)c1ccccc1)C1CC(c2cccnc2)=NO1 (stereo not shown) — higher, 10.1%
- CCCCSc1nc2c(c(=O)n1CC)SC(C)C2 (stereo not shown) — lower, -18.5%
- Cn1nc(C(=O)NCc2ccc(Cl)cc2)c2c1-c1ccccc1S(=O)(=O)C2 — lower, -16%
- CCC(C(=O)NCc1ccco1)N(C(=O)CNS(=O)(=O)c1ccc(C)cc1)c1ccccc1F (stereo not shown) — lower, -6.74%
- C=CCn1c(O)c(C(C)=Nc2ccc(C(=O)O)cc2)c(=O)[nH]c1=O — higher, 3.26%
- COc1ccccc1NC(=O)c1ccc(NC(=O)CSc2nc(N)cc(=O)[nH]2)cc1 — higher, 15.3%
- Cc1cccc(Nc2nc(N)nc(CN3CCC(C)CC3)n2)c1C — lower, -37.6%
- CC1CCCCC1NC(=O)CCCCCn1c(=S)[nH]c2ccccc2c1=O (stereo not shown) — higher, 7.63%
- CCc1ccc(NC(=O)Cn2ccn(-c3cccc(Cl)c3)c(=O)c2=O)cc1 — lower, -7.83%
- CCc1cc(CNC(=O)CC2C(=O)NCCN2Cc2ccccc2C(F)(F)F)on1 (stereo not shown) — higher, 10%
- CC(C)CC(COCc1ccc([N+](=O)[O-])cc1)N1CCN(C(=O)c2ccc(C(F)(F)F)cc2)CCC1=O (stereo not shown) — lower, -67.1%
- Fc1ccc(CNC(=S)Nc2ccc(OC(F)F)cc2)cc1 — lower, -20.6%
- CN(C)/C=C1\N=C(c2ccccc2)OC1=O — higher, 3.09%
- COc1ccc(Nc2ccc(C(N)=O)cc2[N+](=O)[O-])cc1 — higher, 7.18%
- Cc1cc(F)ccc1S(=O)(=O)Nc1ccc(O)c(Sc2ncn[nH]2)c1 — higher, 18.3%
- CCOC(=O)C1CCN(CC(O)COc2ccc(C(C)(C)C)cc2)CC1.Cl (stereo not shown) — lower, -70.4%
- N#Cc1c(N)n(-c2cccc(O)c2)c2nc3ccccc3nc12 — lower, -8.47%
- COc1ccc(C(=O)Nc2c(C)cc(C)cc2C)cc1OC — higher, 8.83%
- COc1ccc(O)c(C(=O)c2cc(C#N)c(=O)n(-c3ccc(Cl)cc3)c2)c1 — lower, -46.2%
- C=CCn1c(=O)[nH]c2nc3cc(N=CN(C)C)c(C)cc3nc2c1=O — higher, -1.61%
- Cc1cccc(C)c1OCc1cc(C(=O)NCC2COCCO2)no1 (stereo not shown) — higher, 2.39%
- CC(C)C(=O)Nc1c(C(=O)c2ccc(F)cc2)oc2ccccc12 — lower, -5.9%
- CCOC(=O)c1ccc(N=c2sc(C(=O)OC)cc(=O)n2CCCN2CCOCC2)cc1.Cl — lower, -16.9%
- COC(=O)C1CCN(C(=O)c2ccc(SC)cc2OC)CC1 — lower, -6.71%
- Cc1cc(C)n2nc(C(=O)NCc3ccco3)nc2n1 — higher, 9.78%
- CCc1nnc(NC(=O)CSc2nnnn2-c2cccc(C(C)=O)c2)s1 — higher, 23.3%
- CS/C(Nc1cc(Cl)ccc1Cl)=C(/C#N)C(=O)c1ccco1 — higher, 17.2%
- COc1ccc(S(=O)(=O)N2CCOCC2)cc1NC(=O)CSc1n[nH]c(C(C)C)n1 — higher, 19.8%
- COC(=O)c1ccc(SCc2cnc(Cl)s2)cc1 — higher, 1.27%
- O=C1CCc2cc(OCCCCc3nnnn3C3CCCCC3)ccc2N1 — lower, -64.1%
- CCOc1ccc(CN2CCN(Cc3ccon3)CC2CCO)cc1 (stereo not shown) — lower, -62.8%
- Cc1ccc(C(=O)NCCCNc2ccc(C(F)(F)F)cc2[N+](=O)[O-])cc1 — higher, 9.3%
- CCOC(=O)C1=C(C)N(C)C(=O)NC1c1cc2c(cc1[N+](=O)[O-])OCO2 (stereo not shown) — higher, 16.8%
